Hit rate of the full screen: of about 150,000 compounds, about 540 (0.36%) showed an effect of 50% or more. Some of the results follow.

The experiment concerns Plasmodium falciparum. Kind of experiment: Primary screen in NF54 nanoGlo assay, in single point, at 2uM, 72h; a lower Z score goes with more inhibition. Conditions: timepoint 72 hour. Type of experiment: functional, Erythrocyte.
For the compound `CN(C(=O)Cn1cccn1)c1nc2c(s1)C[C@@H](c1ccccc1)CC2`, the “% Inhibition” value was found to be 3% and the Z score was -0.45.
Turning to `CC[C@@](C)(C#CCN1CCN(C)CC1)OC(C)=O`, the “% Inhibition” value is recorded as -2% and the Z score is on record as 0.36.
Consider `Cc1cccc(NS(=O)(=O)c2ccc3c(c2)CCN3S(C)(=O)=O)c1C`, for which the “% Inhibition” value is -1% and the Z score is recorded as 0.09.
In the same order, the values of `COc1ccc(C(=O)N2CCC3(CC[C@@H]3OC)CC2)cc1F` are -13% and 1.62.
On to `O=C(CCCc1cn[nH]c1)NCc1cscn1`, for which the “% Inhibition” value turned out to be 11% and the Z score was -1.55.
As to `COc1cc(CN2CCC(NC(=O)C3CCC(F)(F)C3)C2)cc(OC)c1` (stereo unspecified), the “% Inhibition” value is given as -4% and the Z score is listed as 0.84.
With `Nc1cc(N2CCC(c3nccn3Cc3cscn3)CC2)ncn1`, the “% Inhibition” value is given as -1% and the Z score came out at 0.15.
For the compound `O=S1(=O)CCC[C@H](NS(=O)(=O)c2cccc3c2N=S=N3)C1`, the “% Inhibition” value is -18% and the Z score was 2.29.
In the same order, the values of `COc1cc(C)c(-c2cccc(C(=O)N3C[C@@H]4[C@@H](CN(C)C)[C@@H]4C3)c2)cn1` are -6% and 0.81.
In the case of `CN(CCCc1ccco1)c1ccc(-c2nc(-c3cccc(F)c3)no2)cn1`, the “% Inhibition” value is on record as -9% and the Z score is reported as 1.06.
In the same order, the values of `O=C(NCc1cccnc1N1CCOCC1)c1c[nH]nn1` are -3% and 0.6.
With `Cc1cccc2[nH]c(COCC(=O)N[C@@H](C)C3=CCCCC3)nc12`, the “% Inhibition” value was -14% and the Z score came out at 1.45.
The like results for `Cc1nn(-c2ccccc2)c2c1CN(C(=O)Nc1ccc3c(c1)OCO3)[C@H](c1cccc(Cl)c1)c1cccn1-2` were, in that order, -8% and 1.41.
`CN(CCCN(C)c1cnn(C)c1)c1cnn(C)c1`: the “% Inhibition” value is on record as -12% and the Z score was 2.26.
In the same order, the values of `CC(NC(=O)N1CCC(CS(C)(=O)=O)C1)C1COc2ccccc21` (stereo unspecified) are -11% and 1.37.
With `O=C(NCc1cn(-c2ccsc2)nn1)c1c(F)cccc1F`, the “% Inhibition” value is listed as -9% and the Z score is 1.42.
The like results for `CC(=O)c1ccc(NC(=O)Cc2c(C)nn(-c3ccc(C(F)(F)F)cn3)c2C)cc1` were, in that order, -6% and 0.87.
With `COc1cccc(-c2ccc(N3CCCN(C(=O)CN(C(=O)C(C)C)C(C)C)CC3)nn2)c1`, the “% Inhibition” value is recorded as -26% and the Z score was determined as 3.68.
The like results for `Cc1cc(C(=O)N(C)Cc2ccc(Br)o2)no1` were, in that order, -13% and 1.7.
The like results for `Cc1cc(C)c2[nH]c(C(=O)N3CCCOCC3)c(C)c2c1` were, in that order, -4% and 0.59.
The like results for `CC(C)c1nc([C@H]2CCCN(c3ccc4nnnn4n3)C2)no1` were, in that order, -8% and 1.66.
Regarding `CC(=O)NCCc1cn(Cc2nc(-c3cccc(Cl)c3)oc2C)cn1`, the “% Inhibition” value is -20% and the Z score amounted to 2.19.
The like results for `O=C(Cn1nc2c(N3CCN(c4ccccc4)CC3)nccn2c1=O)Nc1ccc2c(c1)OCO2` were, in that order, -23% and 2.19.
On to `CCCCCC(=O)Nc1ccc([C@H]2OCC(=O)N[C@@H]2CO)cc1`, for which the “% Inhibition” value was 31% and the Z score is on record as -3.56.
With `CC1CN(CC2CCN(C(=O)c3ccc(Oc4ccccc4)cc3)CC2)CC(C)O1` (stereo unspecified), the “% Inhibition” value is given as -2% and the Z score was 0.19.
The like results for `O=C(NCCOc1ccccc1)Nc1ccc(N2CCCC2=O)cc1` were, in that order, -4% and 0.66.
The like results for `CN1CCC([C@H]2OCC[C@@H]2c2nc(N(C)C)no2)CC1` were, in that order, 1% and -0.12.
In the case of `C=C1C(C)(C)[C@@H]2CC[C@@]1(C(=O)NC1(C(=O)O)CCC1)C2`, the “% Inhibition” value is reported as -15% and the Z score is 1.98.
Turning to `O=C(c1ccc2ncsc2c1)N1CCN(CCn2cccn2)CC1`, the “% Inhibition” value is -11% and the Z score is on record as 2.17.
The like results for `O=C(O)c1ccccc1CN1CCN(c2nc(-c3ccccc3)no2)CC1` were, in that order, -4% and 0.8.
With `COC[C@H]1C[C@@H](NC(=O)Nc2ccc3c(c2)OCCO3)[C@H](O)[C@@H]1O`, the “% Inhibition” value stood at 16% and the Z score is reported as -1.84.
In the same order, the values of `CNC(=O)CCOC(=O)c1ccc(Cl)c(Cl)c1` are -10% and 1.47.
The like results for `CNS(=O)(=O)c1ccc(N)cc1C` were, in that order, -3% and 0.47.
In the same order, the values of `CC(=O)NC(C)(C)C[C@H](C)N1CCc2[nH]nc(C)c2C1` are 5% and -0.69.
`CCCCn1c(N2CCC[C@H](C(=O)N3CCCC3)C2)nc2ccccc21`: the “% Inhibition” value is recorded as -17% and the Z score turned out to be 2.02.
As to `Cc1noc(C)c1C(C)(C)NC(=O)c1nccnc1N`, the “% Inhibition” value is listed as -4% and the Z score was determined as 0.46.
In the same order, the values of `Cc1nc(CCNC(=O)c2n[nH]c3c2CCC3)nc2c1CCCC2` are -6% and 0.8.
The like results for `COC(OC)C(=O)N1CCN(S(=O)(=O)CC(C)C)CC1` were, in that order, 0% and -0.01.
In the same order, the values of `Cc1cc(C(=O)CN2CCCC[C@H]2C(=O)N2CCOCC2)c(C)[nH]1` are -3% and 0.3.
As to `COCCC(=O)NCCn1c(C)cnc1C1CC1`, the “% Inhibition” value is on record as -4% and the Z score turned out to be 0.81.
On to `Cc1cnc(CN2CC[C@H](O)CC(C)(C)C2)cn1`, for which the “% Inhibition” value was determined as 7% and the Z score is reported as -0.67.
The like results for `CCNC(=O)NCCOC(=O)C1CCCC1` were, in that order, -16% and 2.21.
On to `COc1ccc(NC(=O)CC2(C(=O)O)Cc3ccccc3C2)cc1Cl`, for which the “% Inhibition” value is -10% and the Z score was determined as 0.83.
The like results for `CCOC(=O)c1ccc(Nc2ccc(F)c(N3CCCC3=O)c2)nc1` were, in that order, 9% and -0.74.
In the same order, the values of `Cc1c(CNCc2cccnc2Oc2ccc(F)c(F)c2)cnn1C` are -9% and 1.16.
In the same order, the values of `O=C(Nc1cccc(-c2nnsc2Cl)c1)[C@H]1CCCO1` are -7% and 1.3.
For the compound `O=C(Cn1nnnc1CN1CCCCCC1)NCCCc1ccccc1`, the “% Inhibition” value is recorded as -1% and the Z score was determined as 0.24.
In the same order, the values of `CC1(C)O[C@@H]2C[C@@](OCc3ccc(F)cc3F)(C(=O)NCCCn3ccnc3)CC(OCc3ccc(C#N)cc3)[C@@H]2O1` (stereo partly specified) are -17% and 1.54.
The like results for `COc1ccccc1C(=O)Nc1c(C(=O)Nc2ccc3c(c2)OCO3)oc2ccccc12` were, in that order, -3% and 0.49.
In the same order, the values of `CC(C)Cc1noc(CN(C)C(=O)Cn2sc3ccccc3c2=O)n1` are 3% and -0.31.
As to `CC(C)S(=O)(=O)N(C)C(=O)c1cccc(CC#N)c1`, the “% Inhibition” value was -8% and the Z score was 0.84.
As for `CCOc1cccc(CN(C)c2cc([C@H]3C[C@H](N)C3)nc(COC)n2)c1`, the “% Inhibition” value was -10% and the Z score is 1.72.
For `CCN1CCC[C@H](CN(C)S(=O)(=O)c2cc(-c3cc(C(F)(F)F)on3)oc2C)C1`, the “% Inhibition” value was -21% and the Z score is 2.16.

(Values after ChEMBL document CHEMBL4888484, “Replenishing the malaria drug discovery pipeline: Screening and hit evaluation of the MMV Hit Generation Library 1 (HGL1) against asexual blood stage Plasmodium falciparum ,using a nano luciferase reporter read-out” (2022).)
